The list shows a part of the results.

This assay relates to PfAP2-HC AP2 domain (GST-tagged). Nature of the assay: gcPBM binding intensity (ln(normalized median fluorescence intensity)); higher = stronger DNA binding. An outline of the steps: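 Binding intensity values are the highest Masliner-normalised natural-log median intensity among replicate spots of either probe orientation. The binding step lasted 1 h in 1× PBS with 1% milk, 0.2 mg/ml BSA, 0.5% salmon testes DNA and 0.03% Triton X-100, using GST-tagged P. falciparum DNA-binding domains expressed in E. coli on an Agilent 4 × 180k array of primer-extended double-stranded 36-bp intergenic genomic probes plus negative controls. Alexa488 anti-GST antibody and a 488 nm scan detected bound protein.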
Turning to “ATTTGTAATTTATATTCACACATTCAAAAAAATGAG [CACACA_site6057]”, the “gcPBM binding intensity (ln)” value was determined as 9.42.
As for “AAAAATATAATATAATGTACACAAAAAAAAAAAAAT [XGTACX_site4914]”, the figure is 9.79; as for “TAAAATGTAATCTGAACACACATATTTTTTTAATAT [CACACA_site1768]”, 9.67.
With “GTATTATATTTCAACTGTACGTAAAACTATTAAAAT [XGTACX_site3679]”, the “gcPBM binding intensity (ln)” value is 9.55.
Next, “TTCATTTAGCAAGAATGTACTTATATATATATATAT [XGTACX_site3401]”: 9.57; “ATAAAGCCATACAATACACACATTTTACATGGGGGT [CACACA_site9072]”: 9.88.
As for “CAAAAAAATGTGAAGGCATGCAAATATGTAAAATAA [TGCATGCA_site921]”, the figure is 10.9.
As for “CCATAAAAAGGATACACACACACACCGACATATATA [CACACA_site4653]”, the figure is 10.9.
On to “GTAGTAAATAGGAGGATGCATATGGCACACATTATA [TGCATGCA_negctrl_site59]”, for which the “gcPBM binding intensity (ln)” value worked out at 9.96.
Next, “ATATAAAAATTAAAATGTACATATCTTATTATAATA [XGTACX_site983]”: 9.62; “TAATAAAATAATATCACACATATTTATATATATTAT [CACACA_site5814]”: 9.61.
Next, “CAACATAAAAATTAAGCATGCAATAGACTTGTGTTG [TGCATGCA_site417]”: 9.77; “GTTTAAAAAAATTATCAACTTTAAAAAGGTAACATT [XGTACX_negctrl_site203]”: 9.41.
As to “CACGCATACGGACACACACACACACCGATATATATA [CACACA_site4521]”, the “gcPBM binding intensity (ln)” value was 11.
Regarding “TATTTTTTTATTTGTGCATGTCATATTTAAACATAA [TGCATGCA_site1006]”, the “gcPBM binding intensity (ln)” value was 9.63.
“TGAATAATATACATACGTACATACATATATATAATA [XGTACX_site1302]”: the “gcPBM binding intensity (ln)” value turned out to be 9.64.
Next, “TTTTTTTTTTTTTTTTTTTTCATTCAATTATATTTA [CACACA_negctrl_site712]”: 8.79.
Next, “TTATCACATAAACGATGTACGTACTAGGTTTTTTTT [XGTACX_site2147]”: 9.61; “AAAGGAATATAATGATGTACACAAATATATATACAT [XGTACX_site5347]”: 9.89; “AACTAATATAATAATACATGCACATAAAAATATATA [TGCATGCA_site606]”: 9.78.
Next, “TTTACTTTTTTTTCTTGTACTCATACATACTATCAT [XGTACX_site4919]”: 9.85; “AAATTTCAATAATCTACACACATAAAAAAACAAAAG [CACACA_site1702]”: 9.99.
With “GGCAACAATGTAGATTGTACATATGAATTTTACAAT [XGTACX_site5655]”, the “gcPBM binding intensity (ln)” value amounted to 9.52.
For the sequence “ATATTTTGTTTTATAGTGCACATGGGCATATATTAA [GTGCAC_site9435]”, the “gcPBM binding intensity (ln)” value worked out at 9.57.

Values taken from the supplement of paper PMC11417369.
